Assay results taken from the supplement of paper PMC7826260.
This is one part of the list. Cleavage of a single-stranded DNA pool by Rep nickase domains was read by sequencing at 3 µM enzyme and 37 °C for 1 h; the strands have 90 letters, of which the middle is given. The score is log2 (uncut reads / reads without enzyme); uncut sequences lie near 0, cut ones below; no hit call is given. Shares of all reads are compared; uncut strands gain when others are lost, and binding without cutting may add a little.

Assays:
Test in all cases: uncleaved DNA left, log2 of reads against the no-enzyme library (log2 ratio); higher = less cleavage (more negative = more Rep cleavage of the k-mer); sequences stand for … in CTCGTCCG…ACCGGAGA
[1] = test system: T1, Rep nickase domain of Muscovy duck circovirus
T1 sequence (residues 1-111 of Rep, tag left off): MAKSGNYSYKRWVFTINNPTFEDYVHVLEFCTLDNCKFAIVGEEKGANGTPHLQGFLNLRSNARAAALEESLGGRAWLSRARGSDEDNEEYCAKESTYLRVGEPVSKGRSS
Protocol: (§1)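 A pool of 90-nt single-stranded DNAs with seven random bases just before the constant AC of the nick site (name = the seven bases) was cut by 3 µM recombinant His6-SUMO-tagged Rep nickase domain (300 nM DNA, 50 mM HEPES pH 8.0, 50 mM NaCl, 1 mM MnCl2, 1 h, 37 °C, three replicates). Uncut DNA was amplified and sequenced.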

[2] = test system: T2, Rep nickase domain of banana bunchy top virus
T2 sequence (residues 1-94 of Rep, tag left off): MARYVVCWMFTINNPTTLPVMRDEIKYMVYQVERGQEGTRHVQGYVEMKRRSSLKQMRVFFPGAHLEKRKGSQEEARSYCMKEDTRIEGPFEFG
Protocol: as §1

[3] = test system: T3, Rep nickase domain of cabbage leaf curl virus
T3 sequence (residues 1-116 of Rep, tag left off): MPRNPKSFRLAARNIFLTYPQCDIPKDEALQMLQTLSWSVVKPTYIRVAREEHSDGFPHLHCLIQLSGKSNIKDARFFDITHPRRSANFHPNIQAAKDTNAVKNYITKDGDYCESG
Protocol: as §1

[4] = test system: T4, Rep nickase domain of chickpea chlorotic dwarf virus
T4 sequence (residues 1-124 of Rep, tag left off): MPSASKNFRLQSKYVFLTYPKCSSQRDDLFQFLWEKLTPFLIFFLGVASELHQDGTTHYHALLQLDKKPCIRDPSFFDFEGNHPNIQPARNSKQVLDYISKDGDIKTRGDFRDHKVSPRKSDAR
Protocol: as §1

[5] = test system: T5, Rep nickase domain of faba bean necrotic yellows virus
T5 sequence (residues 1-98 of Rep, tag left off): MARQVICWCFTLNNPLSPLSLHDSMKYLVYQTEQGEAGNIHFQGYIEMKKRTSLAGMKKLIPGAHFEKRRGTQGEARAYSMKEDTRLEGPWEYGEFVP
Protocol: as §1

[6] = test system: T6, Rep nickase domain of maize striate mosaic virus
T6 sequence (residues 1-117 of Rep, tag left off): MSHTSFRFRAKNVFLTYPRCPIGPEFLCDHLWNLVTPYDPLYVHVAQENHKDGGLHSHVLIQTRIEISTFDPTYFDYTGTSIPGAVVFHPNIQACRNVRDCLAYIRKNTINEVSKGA
Protocol: as §1

[7] = test system: T7, Rep nickase domain of porcine circovirus 2
T7 sequence (residues 2-116 of Rep, tag left off): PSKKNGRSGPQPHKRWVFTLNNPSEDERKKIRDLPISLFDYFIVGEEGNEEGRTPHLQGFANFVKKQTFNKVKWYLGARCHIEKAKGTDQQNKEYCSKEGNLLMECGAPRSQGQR
Protocol: as §1

[8] = test system: T8, Rep nickase domain of tomato golden mosaic virus
T8 sequence (residues 1-124 of Rep, tag left off): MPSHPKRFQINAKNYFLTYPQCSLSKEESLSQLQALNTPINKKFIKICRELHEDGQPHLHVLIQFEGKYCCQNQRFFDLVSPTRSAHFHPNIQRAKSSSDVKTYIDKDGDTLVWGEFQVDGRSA
Protocol: as §1

[9] = test system: T9, Rep nickase domain of tomato yellow leaf curl virus
T9 sequence (residues 1-136 of Rep, tag left off): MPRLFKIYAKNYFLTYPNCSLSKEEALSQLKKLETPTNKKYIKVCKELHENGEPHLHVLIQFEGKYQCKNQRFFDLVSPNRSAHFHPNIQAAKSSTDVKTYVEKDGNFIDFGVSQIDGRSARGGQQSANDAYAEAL
Protocol: as §1

[10] = test system: T10, Rep nickase domain of wheat dwarf virus
T10 sequence (residues 1-137 of Rep, tag left off): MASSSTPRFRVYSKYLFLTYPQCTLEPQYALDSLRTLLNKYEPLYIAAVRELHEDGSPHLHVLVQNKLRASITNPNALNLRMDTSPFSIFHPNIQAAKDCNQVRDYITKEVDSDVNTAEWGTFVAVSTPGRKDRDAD
Protocol: as §1

Row | Sequence | uncleaved DNA left (log2) [1] | uncleaved DNA left (log2) [2] | uncleaved DNA left (log2) [3] | uncleaved DNA left (log2) [4] | uncleaved DNA left (log2) [5] | uncleaved DNA left (log2) [6] | uncleaved DNA left (log2) [7] | uncleaved DNA left (log2) [8] | uncleaved DNA left (log2) [9] | uncleaved DNA left (log2) [10]
1 | GACTTCC | 0.158 | -0.0643 | 0.702 | 1.24 | 0.0946 | 1.94 | 0.0758 | 0.0254 | 0.0408 | 0.136
2 | TTCGCCT | -0.0863 | -0.285 | -0.21 | -1.9 | -0.159 | -0.89 | -0.304 | -0.261 | -0.271 | -0.219
3 | ACGGGTA | -0.0282 | 0.0691 | 0.112 | -0.209 | 0.0989 | 0.288 | -0.033 | 0.102 | -0.0341 | 0.037
4 | CGAGCGA | -0.101 | -0.0233 | -0.0829 | 0.204 | -0.147 | -0.177 | 0.0056 | -0.0309 | -0.094 | 0.0108
5 | CCTAGCC | 0.0146 | -0.0393 | -0.212 | -0.465 | -0.00885 | -1.09 | 0.000727 | -0.177 | -0.131 | -0.0724
6 | CGTAGAA | -0.109 | -0.224 | -0.0127 | -0.0832 | 0.00551 | -0.571 | -0.171 | -0.0169 | -0.205 | -0.0441
7 | CTAGGAC | -0.0458 | -0.0833 | 0.31 | 1.15 | -0.0717 | 1.05 | 0.0786 | 0.0866 | 0.00399 | 0.0418
8 | TAAACAT | -0.0611 | 0.0681 | -3.22 | -2.76 | -0.133 | 0.0863 | -0.104 | -0.753 | 0.0282 | -1.91
9 | GATGCGC | 0.0915 | -0.0481 | -0.763 | 0.257 | -0.00136 | -0.704 | 0.0852 | 0.00596 | 0.000662 | -0.0651
10 | AGGATCG | 0.145 | -0.145 | -0.777 | -0.636 | -0.0165 | -0.945 | 0.123 | -0.0232 | 0.0822 | -0.0805
11 | ATACATT | -0.0618 | -0.0873 | -0.417 | -1.84 | -0.107 | -0.306 | -0.323 | -0.0923 | -0.00361 | -0.181
12 | ACTGACT | 0.235 | 0.141 | 0.144 | 0.416 | 0.00882 | 0.734 | 0.039 | 0.166 | 0.0303 | 0.167
13 | GGTACCA | 0.00331 | 0.0808 | 0.363 | 1 | -0.0499 | 1.46 | 0.0367 | -0.0757 | 0.0307 | 0.142
14 | CCGTTGC | -0.0808 | -0.0445 | -0.692 | 0.0182 | -0.103 | -0.738 | 0.0777 | -0.122 | -0.1 | -0.172
15 | TCACAAG | 0.0487 | 0.0954 | -0.777 | -0.693 | 0.0471 | -1.38 | 0.138 | 0.0581 | 0.129 | -0.195
16 | GAATATT | -2.91 | -2.9 | -3.33 | -2.47 | -1.47 | -2.02 | -3.34 | -2.88 | -1.98 | -2.97
17 | CTCCCCT | 0.0256 | -0.0346 | -0.0158 | -1.64 | 0.0436 | -0.362 | -0.0862 | -0.00292 | 0.104 | 0.0082
18 | GTCGGAT | 0.0213 | 0.014 | 0.206 | 1.41 | 0.044 | 1.83 | 0.215 | 0.069 | -0.108 | -0.0831
19 | TTCCGTA | 0.0828 | 0.0582 | 0.293 | -0.158 | -0.0233 | -0.0437 | -0.0264 | 0.0961 | -0.0138 | 0.125
20 | TGCTTTC | 0.269 | 0.102 | 0.408 | 0.29 | 0.0686 | 0.291 | 0.157 | -0.0087 | 0.147 | 0.0636
21 | AGGAAAC | 0.00384 | -0.013 | 0.153 | 0.546 | 0.062 | 0.215 | -0.0208 | -0.0857 | -0.0797 | 0.0622
22 | CACGCGC | -0.0548 | -0.0793 | -0.771 | -0.176 | 0.0469 | -0.846 | 0.151 | -0.0882 | -0.118 | -0.117
23 | AATAATA | 0.011 | -0.0691 | -0.194 | -2.89 | 0.101 | -0.682 | -0.168 | -0.029 | 0.0425 | 0.0362
24 | TGCATCG | -0.0353 | 0.0177 | -0.868 | -0.389 | -0.0217 | -1.12 | 0.206 | -0.0843 | -0.0448 | -0.206
25 | CACTGAC | 0.139 | 0.0251 | -0.0537 | 0.41 | -0.0762 | 0.214 | 0.0167 | -0.164 | -0.0154 | 0.083
26 | AAAGCCA | -0.091 | -0.0699 | -0.195 | -1.61 | -0.0822 | -0.429 | -0.023 | 0.00547 | -0.0901 | -0.0596
27 | GCGGCAC | -0.144 | 0.0805 | 0.595 | 1.39 | -0.0373 | 1.85 | 0.141 | 0.0522 | 0.0238 | 0.146
28 | ATTGCCG | -0.0368 | -0.0119 | -0.635 | 0.844 | 0.051 | -0.173 | 0.0739 | -0.0648 | 0.0309 | -0.0359
29 | CTTCTAC | -0.42 | -0.251 | -0.443 | -2.4 | -0.0624 | -0.76 | -0.633 | -0.109 | -0.126 | -0.237
30 | TAGGATT | 0.0401 | -0.0518 | -0.0304 | 0.0107 | -0.215 | 1.55 | -2.35 | -0.103 | -0.163 | -0.0492
